# Measured values published in PMC6919601, “Identification of Plasmodium dipeptidyl aminopeptidase allosteric inhibitors by high throughput screening” (PLoS ONE, 2019).
# In all, about 110,000 compounds went through this assay and about 230 (0.21%) showed an effect of 50% or more. Some of the results follow.
# Biological target: DPAP1 (Plasmodium falciparum, UniProt Q8IIJ9)
# Experiment: primary screen, percent inhibition; read by cleavage of a fluorogenic dipeptide substrate; higher = more effect of the substance
# Parameters: species or system P. falciparum D10 trophozoite lysates; single well
# 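Also: 30 min substrate incubation versus DMSO and 10 µM JCP410 controls.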
# Chain of DPAP1 (Q8IIJ9 whole entry, looked up): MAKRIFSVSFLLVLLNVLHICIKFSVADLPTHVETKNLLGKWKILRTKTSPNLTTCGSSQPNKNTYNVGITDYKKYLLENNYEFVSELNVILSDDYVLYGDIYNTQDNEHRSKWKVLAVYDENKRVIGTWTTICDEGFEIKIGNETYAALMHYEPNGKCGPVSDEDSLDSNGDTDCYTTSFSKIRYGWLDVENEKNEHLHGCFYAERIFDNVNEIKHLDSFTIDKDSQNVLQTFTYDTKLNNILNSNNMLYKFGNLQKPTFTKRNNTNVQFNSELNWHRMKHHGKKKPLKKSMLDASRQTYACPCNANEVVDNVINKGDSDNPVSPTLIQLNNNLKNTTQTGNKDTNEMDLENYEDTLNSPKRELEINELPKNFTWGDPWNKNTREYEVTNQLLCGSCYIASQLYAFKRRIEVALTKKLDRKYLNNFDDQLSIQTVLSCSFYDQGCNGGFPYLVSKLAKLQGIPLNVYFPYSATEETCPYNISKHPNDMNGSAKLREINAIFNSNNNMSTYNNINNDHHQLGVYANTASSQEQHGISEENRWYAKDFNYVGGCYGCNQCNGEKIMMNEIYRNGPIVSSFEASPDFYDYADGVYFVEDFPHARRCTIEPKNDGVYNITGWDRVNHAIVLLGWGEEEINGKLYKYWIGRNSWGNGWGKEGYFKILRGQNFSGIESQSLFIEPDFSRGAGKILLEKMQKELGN
row,SMILES,% Inhibition @ 10 uM [%]
1,Cc1ccc(NC(=O)C23CCC(C)(C(O)C2)C3(C)C)cc1C (stereo not shown),4.31
2,Cc1ccc(-c2csc(Nc3ccc4c(c3)OCO4)n2)cc1,0.345
3,CCOc1ccccc1C1C(C(N)=O)=C(C)Nc2nc(-c3cc(OC)c(OC)c(OC)c3)nn21 (stereo not shown),-1.47
4,Cc1cc(Cl)ccc1OCCCC(=O)Nc1cccc(F)c1,-0.641
5,CC(=O)N/C(=C\c1ccccc1)C(=O)NC1CCCCC1C (stereo not shown),-3.78
6,COc1cc(/C=C2\SC(NC(C)=O)=NC2=O)ccc1OCc1ccccc1F,6.22
7,N#Cc1c(N)c(C(=O)c2ccccc2)n2ccccc12,1.02
8,CCC(C)N1C(=O)S/C(=C/c2cc(C)n(-c3ccccn3)c2C)C1=O (stereo not shown),-5.34
9,Cn1ccnc1C(O)c1ccc2c(c1)OCO2 (stereo not shown),-0.233
10,CCCN(CCC)CCNC(=O)c1cnn(-c2ccc(F)cc2)c1-n1cccc1,1.11
11,CCOC(=O)c1cnn(-c2ccc(OC)cc2)c1C1CCNCC1,0.708
12,O=C(c1cccs1)N1CCN(C(=O)C(c2ccccc2)c2ccccc2)CC1,-1.6
13,CC(=O)c1ccc(NC(=O)c2cccs2)cc1,-1.17
14,COc1ccc(NC(=O)CN(c2cc(C)ccc2C)S(C)(=O)=O)c(OC)c1,-9.56
15,CCOC(=O)C1=C(CN2CCN(c3ncccn3)CC2)NC(=O)NC1c1ccc(Cl)cc1 (stereo not shown),-1.03
16,Cc1onc(-c2ccccc2Cl)c1C(=O)N1CCCC(C)C1 (stereo not shown),-9.66
17,CCOC(=O)c1noc2ncnc(N(CCOC)Cc3ccco3)c12,5.92
18,CCCCCO/C(O)=C1\C(C)=NC2=C(C(=O)CCC2)C1c1cccc(F)c1 (stereo not shown),-1.82
19,Cc1ccc(-c2cc(C(=O)N3CCCCC3)c3ccccc3n2)s1,-2.48
20,Cc1cc(C)c2oc(C(=O)Nc3nnc(C)s3)cc(=O)c2c1,-3.24
21,C/C(Nc1ccccc1C)=C1\C(=O)NC(=O)N(C)C1=O,-1.06
22,Cc1nn(Cc2ccccc2Cl)c(C)c1NC(=O)c1cc(CC(C)C)on1,-3.12
23,CCCCN1CC23C=CC(O2)C(C(=O)O)C3C1=O (stereo not shown),-3.49
24,Oc1cccc(-c2nc(O)c3c(n2)Oc2ccc4ccccc4c2C3)c1,-2.84
25,C=CCNC(=O)C(C)(C)Oc1ccc(Cl)cc1,-1.35
26,COCCCn1c(=O)c2sccc2n2c(CCCC(=O)N(C)Cc3ccccc3)nnc12,-4.46

row,SMILES,% Inhibition @ 10 uM [%]
1,COc1ccccc1NC(=O)c1ccc2c(c1)-c1ccccc1C2=O,-2.47
2,O=C(O)CSc1ccc2cc(O)ccc2c1,-1.8
3,COc1cc(NC(=O)c2cccnc2)c(OC)cc1Cl,-7.08
4,Cc1oc2ncn3nc(-c4ccc(F)cc4)nc3c2c1C,0.401
5,C=C(C)[C@@H]1CC=C(CN2CCCC(CO)C2)CC1 (stereo partly shown),-8.55
6,O=S(=O)(c1ccc(Cl)c(S(=O)(=O)N2CCCC2)c1)N1CCCC1,5.84
7,Clc1ccc(CN2CCN(c3cccc(Cl)c3)CC2)cc1,1.63
8,CCCN1C/C(=C\c2ccccc2)C(=O)/C(=C/c2ccccc2)C1,4.54
9,CS(=O)(=O)N(CC(=O)NC1CC2CCC1C2)c1ccc(Cl)c(Cl)c1 (stereo not shown),3.35
10,CCCOc1ccc(C2NC(=O)NC(C)=C2C(=O)OCc2ccccc2)cc1 (stereo not shown),29.2
11,Cc1ccc(S(=O)(=O)c2cc3ccccc3oc2=O)cc1,2.12
12,CCOc1ccccc1-n1nnc(-c2nsc(NC(=O)c3ccc(Br)cc3)n2)c1C,-2.28
13,COc1ccc(S(=O)(=O)N(CC(=O)Nc2cc(C)ccc2C)c2ccccc2)cc1,1.52
14,CCOc1ccc(N2C(=O)c3cccc4c(C(=O)c5ccccc5)ccc(c34)C2=O)cc1,-0.0372
15,Cc1cccc2c1N(C)C(=O)/C2=C1\SC(Nc2ccccc2Cl)=NC1=O,1.7
16,CCC1CCCCN1C1N=CNc2sc3c(c21)CCCC3 (stereo not shown),1.69
17,Cc1ccc2oc(=O)c3cnn(CC(=O)N(CCN(C)C)Cc4ccco4)c3c2c1,-1.7
18,N#Cc1nc(/C=C/c2ccc(F)cc2)oc1NCc1ccc2c(c1)OCO2,-4.39
19,Cc1cc(NC(=O)/C=C/c2ccc(C)o2)no1,0.64
20,CCC(C)NC(=O)c1ccccc1NC(=O)CN(c1ccc(C)cc1C)S(C)(=O)=O (stereo not shown),-1.35
21,Cc1ccnc(NC(=O)COc2cc(C)ccc2C(C)C)c1,17
22,COc1ccc(C(=O)Nc2nnc(S(=O)(=O)N(C)Cc3ccccc3)s2)cc1,1.1
23,CN1CCN(c2nc3c(c(=O)n(C)c(=O)n3C)n2Cc2ccc(Cl)cc2Cl)CC1,-0.48
24,Cc1cc(-c2ccc(C)c(S(=O)(=O)NCc3ccccc3Cl)c2)on1,-6.07
25,O=C(CCc1ccccc1)Nc1nc(-c2ccccc2)cs1,-3.72
26,CCc1ccc(C=C(C(=O)O)C(=O)O)s1,1.64

row,SMILES,% Inhibition @ 10 uM [%]
1,Cc1cccc(CS(=O)(=O)Cc2ccc(C(=O)NCCCN(C)C3CCCCC3)o2)c1,-0.971
2,COc1ccc(CCNC(=O)c2ccc(C/N=c3/c(N4CCOCC4)c(O)c3=O)cc2)cc1OC,1.47
3,O=C(NCC1CCCO1)c1ccc(NC(=O)c2cccc(Cl)c2)cc1 (stereo not shown),-3.43
4,CCCCCNC(=O)c1ccc(OC)cc1,-5.44
5,CCc1c(C)sc(NC(=O)c2ccccc2C)c1C#N,-4.61
6,OCCN(Cc1ccccc1)C1CCC(c2ccccc2)CC1 (stereo not shown),3.19
7,COc1ccc(C2C(C#N)=C(N)Oc3cc(C)oc(=O)c32)c(OC)c1OC (stereo not shown),-0.0372
8,Cc1ccc2ncc(S(=O)(=O)c3ccc(C(C)(C)C)cc3)c(O)c2c1,-5.25
9,Cc1ccc(-n2nnc(-c3nc(-c4ccc(Cl)cc4)no3)c2N)c(C)c1,3.98
10,CC1CCCN(CCCNc2ncnc3onc(-c4ccc(F)cc4)c23)C1 (stereo not shown),2.42
11,COc1ccc(S(=O)(=O)Nc2ccc(C(=O)c3ccccc3)cc2)cc1,-2.09
12,O=C(NCc1ccccn1)c1cc(S(=O)(=O)N2CCCCC2)c[nH]1,0.589
13,Cc1ccc(C(=O)N2CCN(c3ccccc3)CC2)cc1[N+](=O)[O-],-4.3
14,Cn1cccc1Cc1nnc(SCC(N)=O)n1CCc1ccccc1,-0.495
15,CCCCC(=O)NC(c1ccco1)c1ccc2cccnc2c1O (stereo not shown),-6.93
16,Cc1sc(NC(=O)c2ccc3c(c2)OCO3)c(C#N)c1C,24.3
17,CCc1ccc(NC(=O)c2cccc(C(=O)Nc3ccc(CC)cc3)c2)cc1,-4.4
18,O=C(O)C1CCCN(c2ncccn2)C1 (stereo not shown),-4.91
19,O=C(NCc1ccc(Cl)cc1)c1ccc(C(=O)NCc2ccc(Cl)cc2)nc1,0.389
20,CCN(CC)C(=O)C1CCCN(Cc2c(F)cccc2F)C1 (stereo not shown),-1.75
21,Cc1ccc(C)c(OCC(=O)N2CCCC2)c1,-1.84
22,CCN1C(=O)N/C(=C/c2c(C)n(Cc3ccc(Cl)cc3)c3ccccc23)C1=O,-5
23,Cc1nn(Cc2cccc(C(=O)Nc3nc(-c4ccccc4)cs3)c2)c(C)c1Cl,-5
24,CCNc1oc(COc2cccc(C)c2)nc1C#N,-2.47
25,Cc1ccc(C(=O)Nc2cc(Cl)ccc2C)cc1,-8.76
26,O=C(CSc1nc(-c2ccccc2)cc(C(F)(F)F)n1)Nc1ccccn1,4.42

row,SMILES,% Inhibition @ 10 uM [%]
1,N#Cc1c(S)nc(N2CCOCC2)c2c1CCCC2,1.8
2,Cc1ccc(C(=O)C2=C(O)C(=O)N(CCCn3ccnc3)C2c2ccco2)cc1 (stereo not shown),1.88
3,CCCOc1ccc2c(=O)c(Oc3ccccc3F)c(C)oc2c1,-1.37
4,OCCNCc1cc(Br)ccc1OCc1ccccc1Cl,-3.09
5,Fc1ccccc1N1CCN(Cc2c[nH]c3ccccc23)CC1,12.3
6,O=C(c1cccs1)N(C1CCCCC1)C1CCCCC1,2.6
7,CC(c1ccc(O)cc1)N1C(=O)c2ccccc2C1=O (stereo not shown),-0.403
8,O=C(c1ccccc1)N1CC(COc2ccccc2)OC(c2ccoc2)O1 (stereo not shown),-4
9,Cc1nn(-c2ccccc2)c(Cl)c1/C=N/n1c(S)nnc1-c1ccccc1,2.56
10,O=S(=O)(Nc1ccccc1)c1ccc(F)cc1,-1.22
11,CC(C)(C)NC(=O)CN(Cc1ccc(F)cc1)S(=O)(=O)c1ccccc1,-1.17
12,CC(C)CNc1ncnc2c1cnn2C,-1.1
13,COCCCNc1nc2c(c(=O)n(C)c(=O)n2C)n1C,-7.08
14,CS(=O)(=O)c1ccc2nc(NC(=O)c3ccc(Cn4cc(Br)cn4)o3)sc2c1,4.39
15,CC(C)(C)c1ccc(OCc2nn3c(-c4ccccc4)nnc3s2)cc1,-4.02
16,Cc1ccnc(-n2c(C)cc(/C=C3\NC(=O)N(Cc4ccc(Cl)cc4)C3=O)c2C)c1,-4.93
17,CCCCCOc1ccc(C2SCC(=O)Nc3c2c(O)nn3C2CCOC(C)(C)C2)cc1 (stereo not shown),4.54
18,COc1ccc(-c2noc(-c3cccc(Br)c3)n2)cc1,-0.795
19,CCN(CC)c1cc(-n2nc(C)cc2C)nc(-c2ccccc2)n1,6.89
20,Cc1[nH]c2ccc(C(=O)NCCCN3CCOCC3)cc2c1C,1.78
21,COc1cc2c(cc1OC)C(C)N(C(=O)Cn1ncc3c1-c1cc(C)ccc1OC3)CC2 (stereo not shown),-8.38
22,COCCNC1CCc2ccccc2C1 (stereo not shown),-1.82
23,CCc1ccc(-c2cn3c(n2)sc2cc(C(=O)NCc4cccnc4)ccc23)cc1,8.6
24,Oc1ccccc1-c1cc(-c2ccc(Br)cc2)[nH]n1,1.83
25,CCC(=O)N(CCc1ccc(OC)cc1)C1CC(=O)N(c2ccc(Br)cc2)C1=O (stereo not shown),-8.37
